The results in this text go back to the RNAGym collection of RNA variant scans (doi:10.7554/elife.90254).

B1: LINE1-mini (parent)
chain: GGCAGAGCUCAACACAGCGUGGCAAAGUGGCUGUGGCUAGACUGCC

The source gives no read counts; variants with many changes may rest on few reads.

The variants in the series derive from B1. Briefly: self-cleavage, relative activity (ratio to wild type); higher = more cleavage; in vitro, sequencing; the parent is a self-cleaving ribozyme.
Take AGCGGAGCUCAACACAGCUUAGCAAAGUGGCUGAAGCAAGACUGCC: the self-cleavage stood at 0.03.
The same measure for AGAAGAGCUCAACACAGCGUGGCAAACUAUUUGUGGCUUUACUGCU: 1.23.
As to AGAAGAGCCCAACACAACGUGGCAAACUGGCUGUGGCUAGACUGCC, the self-cleavage turned out to be 0.15.
Turning to AGCAGAGCUCAAUACAGGGUGGCACAGUGGCUGUGGCUAGACUGCC, the self-cleavage is 0.
The value for AGCAGAGCUAAACACAGCGUGGCAAAAUGGCUGUGGCUGGACUGCC was 0.13; that for AGGAAAGCUCAAGACAGCGUGGCAAUCUGGCUGUGGCUAGACUGCC was 1.34.
The value for AGCAGAGUUCAACACAGCGUGGUAAAGUGGCUGUGGCUAGACUGCG was 0.04; that for AGCAGAGCUCAACUCAGCGUGCCAAAGUGGCUGUGGCUAUACUGCC was 0.05.
With AGCCGAGAUCAACACAGCGUGGCAAAGUGGCUGGGGCUAGACUGCC, the self-cleavage amounted to 0.32.
The value for AGCAGAGCUAAACACCGCGUGGCAAAUUGGCUGUGGCUAGACUGCC was 0.07; that for AGCGGAGCUCACCACAGCGUGGCAAAGUAGCUGUGGCUAGACUGCC was 0.03; that for AGCAGAGCUAAACACAGCGUGGCGAAGUGGCUGUGGCUAGCCUGCC was 0.03.
With AGCCGAGCUCAACGCAUCGUGGCAAAGUGGCUGUGGCCAGACUGCC, the self-cleavage turned out to be 0.75.
The value for AGCAGAGUUCAACACAGCGUGGCGAAGUGGCUGUGGGUAGACUGCC was 0.34; that for AGCAGAGUUCAACACAGCGUGGCAAAGUGGCUGUCGCUAGACUUCC was 0.63.
The value for AGUAGAGACCAACACGGCGUGGCAAAGUCGCUCUGGCUUGACUGCC was 0.08; that for AGCAGAGCUCAAGACUGCGUGGCAAAGUGGAUGUGGCUAGACUGAC was 0.06; that for AGCAGCGCUAAACACAGCAUGGCGAAGUGGCUGUGGCUAGACUGCC was 0.1.
The same measure for AGCAGAGCUAAAAACAGCGUGGCAAAGUGGCUUUGGCUAGACUACC: 0.05; for AGAAGAGCUCAACACGGCGUGGGAAAGUGUCUGUGGCUAGAAUGCC: 0.07.
As to AGCAGAGCUAAAGACAGCGUGGCAAAGUGGCUGUGGCUAGACUGCC, the self-cleavage was 0.04.
Take AGCAGAGCUCAACACAGCGUGGCACAGUGGCUGUGGCUGGACUGCC: the self-cleavage was 0.12.
The same measure for AGCAGAGCUCAACACAGCGUGGCAAAGUGGCUGUGGCUGGACUGAC: 0.04.
The same measure for AGCAGAGAUCAACACAGCGUGGUAAAGUGGCUGUGGCUAGACUGCC: 0.32; for AGCAGAGCUCAAAACAGCGUGGCAAAGUGGCUGUGGCUAGAGUGCC: 0.05.
The same measure for AGCAGAGAUCCACACAGCGUGGCAAAGUGUCUGUGGCUAGACUGCC: 0.02; for AGCAGAGCUAAACACAGCGUGGCAAAGUGGGUGUGGCUCGACUGCC: 0.01; for AGCAGAGCUAAACACAGCGUGUCGAAGUGGCUGUGGCGAGAGUGCC: 0.04.
AGAAGAGCUUUACACUGCGUGGCAAAGUGGCUGUGACUAGACUGCC: the self-cleavage amounted to 0.12.
The same measure for AGCAGAGCUCCACACACCGUGGCAAUGUGGCUGUAGCUAGAUUGCC: 0.01; for AGAAGAGCUAUACAGAGCGUGGCAAAGUGGCUGUGGCUAGACUGCC: 0.2; for AGCAGAGCUUAACAUAGCGUGGCAAAAUGGCUGUGUCUAGACUGCC: 0.06.
AGAAGAGCUCGACACAGCGUGGCAAAGUGGCUGUGGCUAGAAUGCC: the self-cleavage turned out to be 0.06.
On to AGCAGAGCUCAACACAGCGUGGCAAGGUGGCUGCGGCUAGACUGCC, for which the self-cleavage stood at 0.09.
The value for AGCAGAGCUCAACACAGCGUGGCAAUGUGGCUAUGGCUAGACUGCC was 0.03; that for AGUAGAGCUCAACACAGCGUGGCAAAGUGGCUGAGGCUAGACUGCC was 0.17.
Regarding AGCAGAGCUCAACACGGCGUGGCAAAGUGGCAGUGGCUAGACUGCC, the self-cleavage came to 0.06.
The value for AGCAGAGCUCAAAACGGCGUGGCAAAGUGGCUGUGGCUAUACUGCC was 0.02; that for AGCAGAGCUCAAGCCAGCGUUGCAAAGUGGCUGGGGCUAGACUGCC was 0.01; that for AGCAGAGCUAAACACAGCGUGGCAAAGUGGCUGUGGCUAGCCUGCC was 0.04.
The same measure for AGCAGAGCUCAACACAGCGUGGCAAGGAUGCUGUGUCUAUACUGCC: 0.07.
The value for AGCAGAGCUCAACACAGCGUGGCAAAGUGGCUGUGGCUUGAAUGCC was 0.08; that for AGCCAAGCUCAACACAGCGUGGCAAAGUGGCUGUGGCUAGACUGCU was 0.07.
Take AGCAGAGCUCAACCCAGCGUGGCCAAGUGGCUGUGGUUAGACUGCC: the self-cleavage was determined as 0.03.
The value for AGCUGAGCCCGACACAGCGUGGCAAAGUGGCUGUGGUUAGACUGCC was 0.09.
The same measure for AGCAGAGCUAAACACAGCGUGGCAAAGUGGCUUUGGCUAGACUGCC: 0.04.
The value for AGCAGAGCUCAACACAGCGUGGCAAUAUGUCUGCGGCUAGACUGCC was 0.11; that for AGCCGAGCUCAACACACAGUGGCACAGUGGCUGUGUCUAGUCUGCC was 0.01.
As to AGCAGAGCUCAAUACAGCGUGGAAAGGUGGCCGUGGAUUGCCCGCC, the self-cleavage came to 0.1.
Consider AGCAGAGUUCAACCCAUCGUGGCAAAGUGGCUGUGGCUAGACUGCC, for which the self-cleavage stood at 0.06.
In the case of AGCAGAGAUCAACACAGCCUGGCAAAGGGGCUGUGGCUAGAUUGCC, the self-cleavage was found to be 0.42.
The value for AGUAGAGCUCAACACAGCGUUGCAAAGUGGCUGUGGCUACACUGUC was 0.1; that for AGCAGAGCUCAACACAGCGUGGCAAUGUGGCUGUGGCUGUACUGCC was 0.2.
The value for AGUAGAGCUAAACGCACCGUGGCAAAGUGGCUGUGGCUAGACUGCC was 0.12; that for AGCAGAGCUCAACACAGCGUGGCAAGGCCGCUGUGGCAAGACUGCC was 0.01; that for AGCAGAGCUUAACACAGCCUGACAACCCGGCUGUGGCUAGCCUGCC was 0.03.
The value for AGCGGAGCUCAAUACCGCGUGGCAAAGUGGCUCUGGCUAGACUGCC was 0.05; that for AGCAGAGCUCACGACAGCGUGGCAAAGUGGCUUUGGAUAGACAGCC was 0.01; that for AGCAGAGGUCAACACAGCGUGGCAGAGUGGCUCUGGAUAGACGGCC was 0.
For AGCAGCGCUCAACACAGCGUGGUAAAGUGGCUGUGGCUCCACUGCC, the self-cleavage was found to be 0.03.
The value for AGAAGAGCUCAACACAGCGUGGCAAAAUGGCUGUGGCUAGACUGCC was 1.44.
The same measure for AGUUGAUCUCAACACAGCGUGGCAAAGUGGCUGUGGCUAGACUGCC: 0.54; for AGCAGAGCUCAACACAGCGUGGCAAUGAGGCUGUGGCUAGACUGCC: 1.36; for AGCAGAGCUCAAUACAGCGUGGCAGAGUGGCUGUGGCUAGACUGCC: 0.03.
The same measure for AGCAGAGUUCAACACAUCGUGGCAAAGUGCCUGUGGCUUGACUGCC: 0.7; for AGCAGAGCUCAACGCAGCGUGGCUAAGUGGCUGUGGCUAGACUGCC: 0.03.
Turning to AGCAGAGCUCAACACAGCGUGGCAAUGUGCCUGUGGCUAGACUGCC, the self-cleavage turned out to be 0.26.
The same measure for AGCAGAGAUCCACACAGCGUGGCAGAUUGCCUGUGGCUAGACUGCC: 0.02.
The same measure for AGAAGAGCUCACCACAGCAUGGCAAAGUGGCUGUGGAUAGACUGCU: 0.09.
For AGCAGAGCUCAACACUACGUGGCAAAGUGGCUGCGGCUAGACUGCC, the self-cleavage was 0.04.
The value for AGCAGAGCUCAACACAGCGUGGCAGAGUGGCAGUGGAUAGACUGCC was 0.04; that for AGCAGAGCUCAACACAGCGUGGCACAGUGGCUGGGGCUAGACUGCC was 0.11; that for AGCAGAGCUCAACCCAGAAUGGCAAAGUGGCUAUGGCUAGACUGCC was 0.03.
The same measure for AGCAGAGCUUACCACAGCGCGGCAAAGUCGCUGUGGCUAGAAUCCC: 0.01; for AGGAGUGCUCAACACAGCGUGGCCAAGUGGCUGUGGUUAGACUGCC: 1.17.
The same measure for AGGAGAGCUCAACACAGCGUGGCAAAGUGGUUGGCGCUAGACUGGC: 0.18; for AGCAGAGCUCAUCACAGCGUGGCAAAGUGGCUGUGACUAGACUGCC: 0.02.
As to AGCAGAGCUCAGCACAGCGUGGCAAACUCGCUCUGGCUAGACUGCC, the self-cleavage was 0.03.
As to AGCAGAGCUAAACACAGCGUGGCAAAGCGGCUGUGGCUCGACUGCC, the self-cleavage was determined as 0.06.
The same measure for AGCAGAGCUCAACCCAGCGUGGCAAAGUGGCUUUGGCAAGACUGCC: 0.06; for AGCAGAGCUCUACACAGAGUGGCAAAGUGGCUGUGGCUAGACUGCC: 0.05.
The value for AGCAGAGCUCAACACAGCGUGGCAACGUGGCUGUGGCUAGACUGAC was 1.38; that for AGCAGAGCUCAGCACGGCGUAGCAAAGUGGCUGUGGCUAGACUGCC was 0.05.
The same measure for AGUAGAGCUCAACACGGCGUGGCAAAGUGGCCGUGACUAGACUGCC: 0.06.
As for AGCAGAGCUCAACAAAGCGUGGGAAAGUCGCUGUGACUAGACUGUC, the self-cleavage is 0.01.
With AGCAGUGCUCAACACAGCGUGGCACAGUGGCUGUGGCUAGACUGCC, the self-cleavage is 2.89.
The value for AGUAGAGCGCAACACAGCGUGGCAAAGUGUCUAGGGCUAGACUGCC was 0.21; that for AGCAGAGCUGAACACUGCGGGCCAAAGUGGCUGUGGCUAGACUGCC was 0.07; that for AGAAGUGCUCAACACAGCGUGGCAAAGUGGCUGUCGCUAGACUGCC was 0.57.
The value for AGCAGAGCUCGCCACAGCGUGGCAAAGUGGCUGUGGCUCGACUGCC was 0.01; that for AGUGGAGCUCAACACAGGGUGGGAAAGUGGCUGUGGCUAGACUGCC was 0.14.
The value for AGCAGAGGUCAACACACCGUGGCAAAGUGGCUGUGGCUAGACUGUC was 0.04; that for AGCAGAGCUAAACACAGCGUGGCAAAGUGACUGUAGCUAGACUGUC was 0.17; that for AGCAGCGCUCAAAACAGCGUGUCAAAUUGCCUGUGGCUAGAUUGCG was 0.03.
For AGUAGAGCUCAACACCGCUUGGCUAAGUGCCUGUGGCUAGACCGCC, the self-cleavage was found to be 0.22.
With AGCAGAGCUCAACACAGCGUGGCUAAGUGGAUGUGGCUAAACUGCC, the self-cleavage was determined as 0.04.
Regarding AGCAGAGCUCACCACAGCGUGGGAAAGUGGCUGUGGCUAGACUGCC, the self-cleavage was 0.03.
The value for AGCCGAGCUCAACACAGCGUGGCAAAGUGGCUUUGGCUAGGCUGCC was 0.4.
Consider AGUAGAGCUCAACCCAGCGUGGCAAAGUGGCUGUGGCUAGACUGCC, for which the self-cleavage was determined as 1.35.
The same measure for AGCGGAGCUCAACACAGCGUGGCAAAGUGGAUGUGGCUAGACUGCC: 0.05; for AGCAGAGCUCAACAAAGCGUGGCAAAGUGGUUGUGGCUAGACUGCC: 0; for AGCAGAGCUCAUCACAGCGUGGCAAAGUGGCUUUGGCUAGACUGCC: 0.07.
The same measure for AGCAGAGCUGAACACAGCAUAGCAAAGUGGUUGUGGCUAGACUGCC: 0.3; for AGCAGAGCUCCACACAGCGUAGCAAAGUGGCUGUGGCUAGACUGCC: 0.07; for AGCAGCGCUCAACACAGCGUGGCAAAGUGGCUUUGGCUCGACUGCC: 0.07.
The value for AGCAGAGCUCAACACAGCGUGGCGAAGUGGCUGUGGCUAGAUUGCC was 0.09; that for AGCAGAGGUAAACACAGCGUGGCAAAUUGGCUGUGGCUAGACUGAC was 0.01.
Turning to AGAAGAGAUCAACACAGCGUGGCAAAGUGGCUGUGGCUAGUCUGCC, the self-cleavage stood at 2.62.
The same measure for AGCAGAGCUAAACACAGCUUGGCAAAGUUGCUGUGGCUAGACUGCC: 0.09.
The value for AGCUGAGCUCAACACAGCGUGGCAAAGUGGCUGUGGCUUGACUGCC was 0.13; that for AGCAGAGCUCAACAAAGCGUGGCAAAGUAACUGUGGCUAGACUGUC was 0.02; that for AGCAGAGCUUAACACAGCGUGGCAAAGUGGCUGUGGCUAUACUGCC was 0.06.
